# According to paper PMC6919601, “Identification of Plasmodium dipeptidyl aminopeptidase allosteric inhibitors by high throughput screening” (PLoS ONE, 2019):
# About 230 (0.21%) of roughly 110,000 compounds showed an effect of 50% or more. The list shows a part of the results.
# Target: DPAP1 (Plasmodium falciparum, UniProt Q8IIJ9)
# Assay: primary screen, percent inhibition; read by cleavage of a fluorogenic dipeptide substrate; higher = more effect of the substance
# Parameters: species or system P. falciparum D10 trophozoite lysates; single well
# 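Note: 30 min substrate incubation versus DMSO and 10 µM JCP410 controls.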
# DPAP1, sequence (Q8IIJ9 whole entry, looked up): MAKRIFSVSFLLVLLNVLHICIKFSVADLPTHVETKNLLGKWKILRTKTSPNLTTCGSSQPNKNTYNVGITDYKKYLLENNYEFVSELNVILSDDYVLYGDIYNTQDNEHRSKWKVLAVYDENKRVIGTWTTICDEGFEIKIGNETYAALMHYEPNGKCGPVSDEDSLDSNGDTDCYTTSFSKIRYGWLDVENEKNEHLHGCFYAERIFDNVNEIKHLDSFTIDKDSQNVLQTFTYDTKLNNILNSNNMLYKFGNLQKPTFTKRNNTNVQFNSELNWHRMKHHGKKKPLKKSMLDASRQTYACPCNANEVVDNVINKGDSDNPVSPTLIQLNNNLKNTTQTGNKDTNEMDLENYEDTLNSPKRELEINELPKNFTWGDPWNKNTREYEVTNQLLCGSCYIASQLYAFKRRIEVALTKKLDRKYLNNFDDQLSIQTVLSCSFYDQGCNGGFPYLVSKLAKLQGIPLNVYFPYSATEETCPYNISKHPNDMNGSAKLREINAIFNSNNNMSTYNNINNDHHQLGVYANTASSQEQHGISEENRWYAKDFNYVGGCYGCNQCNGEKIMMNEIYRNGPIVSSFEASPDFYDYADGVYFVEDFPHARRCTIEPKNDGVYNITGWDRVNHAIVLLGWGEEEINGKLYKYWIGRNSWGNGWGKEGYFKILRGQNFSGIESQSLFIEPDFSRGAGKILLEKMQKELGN
row,Structure (SMILES),% Inhibition @ 10 uM
1,COc1ccc(/C=C2\CCc3ccccc3C2=O)c(OC)c1,4.79%
2,OCCOCCN1CCN(C2CCC(c3ccccc3)CC2)CC1 (stereo not shown),-1.81%
3,Cc1cc(C)c(S(=O)(=O)N(C)c2ccccc2)c(C)c1,1.83%
4,CCn1ncc(C2=NOC(C(=O)NCC34CC5CC(CC(C5)C3)C4)C2)c1C (stereo not shown),-3.08%
5,CC1CCCCC1N1C(=O)c2ccccc2C1C(=O)NC1CCCCC1 (stereo not shown),2.79%
6,CN(Cc1ccccc1)C(=O)Nc1cn(C)c(=O)c2ccccc12,10.5%
7,COc1ccc(C(=O)n2nc(-c3ccco3)nc2SCc2ccccc2)cc1OC,4.08%
8,O=C(O)c1c(CNCCCc2ccccc2)c2ccccc2n1Cc1cccc(Cl)c1,-1.44%
9,CCN(Cc1ccccc1)C(=O)c1cc2cc3cc(OC)ccc3nc2s1,50.3%
10,Cc1cccc(-c2noc(CCCC(=O)N3CCN(C)CC3)n2)c1,0.558%
11,COc1ccc(NC(=O)COc2ccc3c(=O)c(Oc4ccccc4C(C)C)coc3c2)cc1,1.05%
12,CCCCN(C)C1CC(=O)N(c2ccccc2)C1=O (stereo not shown),0.751%
13,CNS(=O)(=O)c1ccc(NC(=O)Nc2cccc(C)c2)cc1,-1.28%
14,Cc1ccnc(NC(=O)Cc2c(F)cccc2Cl)c1,1.39%
15,O=C(NCc1ccco1)C1CCCN(c2ncnc3c2nc2n3CCCCC2)C1 (stereo not shown),1.4%
16,Cc1ccc(S(=O)(=O)Nc2cccc(-c3cn4cccnc4n3)c2)cc1,1.83%
17,COc1ccccc1CNC(=O)c1oc2c(c1C)-c1n[nH]cc1CC2,5.42%
18,Cn1c2ccccc2n2c(SCCOc3ccc(Cl)cc3)nnc12,-9.34%
19,CC(C)C[C@H](NC(=O)OCc1ccccc1)C(=O)NC(C#N)/C=C/c1ccco1 (stereo partly shown),-1.41%
20,N#Cc1ccccc1N1C(=O)C2C3C=CC(CC3)C2C1=O (stereo not shown),-0.759%
21,S=C1NC2(CCCCC2)N=C1c1ccc(Cl)cc1,3.5%
22,CCOC(=O)c1c(-c2ccccc2)csc1NC(=O)c1cc(-c2ccco2)on1,-0.591%

row,Structure (SMILES),% Inhibition @ 10 uM
1,COc1ccc2cc(Br)ccc2c1CC(=O)NCCCN1CCOCC1,-1.98%
2,Cc1occc1-c1nnc2sc(/C=C/c3ccc(C(C)C)cc3)nn12,-4.91%
3,COc1cccc(-c2nnc3n2N=C(c2ccc(Br)cc2)CS3)c1,3.05%
4,c1ccc2c(CN3CCc4c([nH]c5ccccc45)C3)c[nH]c2c1,-2.81%
5,Cc1cc(C)c(NC(=O)CN2CCCCCC2)c(C)c1,-0.0369%
6,CC1=C(C#N)C(c2ccc(N(C)C)cc2)C2=C(O)CC(c3ccc(Cl)cc3)CC2=N1 (stereo not shown),-3.77%
7,CCC(C)(C)C1CCc2c(sc(NC(=O)CC(C)C)c2C(N)=O)C1 (stereo not shown),2.42%
8,COc1ccc(CCNC(=O)COc2cc(C)c(Cl)c(C)c2)cc1OC,4.08%
9,CC12C=CC(O1)C1C(=O)N(c3ccccc3Cl)C(=O)C12 (stereo not shown),3.87%
10,COc1cc(C2c3c(oc4ccc(F)cc4c3=O)C(=O)N2c2nccs2)ccc1O (stereo not shown),2.1%
11,COc1cccc(CN2CCN(Cc3ccco3)CC2)c1,-13.6%
12,COc1ccc(NC(=O)CN(c2ccc(OC)c(Cl)c2)S(C)(=O)=O)cc1,1.89%
13,COc1ccc(-c2[nH]nc3c2C(c2cccnc2)N(C)C3=O)cc1 (stereo not shown),-2.84%
14,CCOC(=O)c1conc1-c1cccc(O)c1,-0.233%
15,COc1cc(C(=O)Nc2cc(C)cc(C)n2)cc(OC)c1OC,-8.42%
16,CCN(CC)c1ccc(CN2CCN(c3ccccn3)CC2)cc1,3.68%
17,O=c1cccc2n1C[C@H]1C[C@@H]2CN(Cc2ccc(-c3ccccc3)cc2)C1,1%
18,COc1cc(/N=C/C2=C(O)CC(C)(C)CC2=O)c(OC)cc1Cl,3.92%
19,COc1nc(N)c(C#N)c(-c2ccccc2)c1-c1ccccc1,-10.2%
20,Cc1ccc(S(=O)(=O)N2CCc3ccccc32)cc1S(=O)(=O)N1CCc2ccccc21,-0.992%
21,N#C/C(=C/C=C/c1ccccc1)c1nc(-c2ccc([N+](=O)[O-])cc2)cs1,-6.27%
22,CCCCn1c(=N)n(CC(O)COc2ccccc2)c2ccccc21 (stereo not shown),0.431%

row,Structure (SMILES),% Inhibition @ 10 uM
1,O=C1OC(c2ccccc2F)=N/C1=C\c1cccc(C(F)(F)F)c1,-3.52%
2,CC1=C(C(=O)OC2CCCCC2)C(c2cccc(Br)c2)NC(=O)N1 (stereo not shown),1.83%
3,O=C(NC1(C(F)(F)F)NC(=O)N(c2ccc(F)cc2)C1=O)C1CCCCC1 (stereo not shown),-3.34%
4,COc1cc(OC)c2c(C)c(CC(=O)N3CCOCC3)c(=O)oc2c1,-1.02%
5,Cc1cccc(NS(=O)(=O)c2ccc(/N=C/c3c(O)nc(O)c(C#N)c3C)cc2)c1,0.983%
6,CC(C)C(=O)N1N=C(c2ccccc2)NC(=O)C1c1c[nH]c2ccccc12 (stereo not shown),15.9%
7,O=C(CN1C(=O)CSC1=O)N1CCc2ccccc2C1,2.57%
8,CCOC(=O)c1c(C)n(C)c2ccc(O)cc12,-4.77%
9,CCCOc1ccc2oc(-c3ccc(OC)cc3)cc(=O)c2c1,-7.56%
10,O=C(NCCC1=CCCCC1)Nc1noc2c1COc1ccccc1-2,1.69%
11,Cc1cc(-c2cccs2)c2c(N)c(C(=O)c3ccccc3)sc2n1,4.67%
12,CCn1cc(/C=C2/NC(=O)N(Cc3ccc(C)cc3)C2=O)c2ccccc21,2.44%
13,CCN(CC)Cc1cc(NC(C)=O)ccc1O,1.7%
14,CCOCCCN1C(=O)c2[nH]nc(-c3ccccc3O)c2C1c1ccc(C(=O)OC)cc1 (stereo not shown),-3.49%
15,Cc1ccc(CCNC(=O)C2CCC(=O)N2C2CCCCC2)cc1 (stereo not shown),-5.07%
16,CCCC(=O)Nc1ccc(C(=O)N2CCN(c3cccc(C(F)(F)F)c3)CC2)cc1,1.83%
17,Cc1ccsc1C1C(C#N)=C(N)SC(N)=C1C#N,27.5%
18,CC(NC(=O)Cc1cccs1)c1ccc(O)cc1 (stereo not shown),4.19%
19,CCCOc1ccc(C(=O)C2=C(O)C(=O)N(c3ccccn3)C2c2ccccc2F)cc1C (stereo not shown),1.52%
20,O=C(NC1CCCC1)c1sc2ccccc2c1Cl,-0.941%
